The record followed here is ChEMBL document CHEMBL1156685, “Synthesis and structure-activity relationships of N-6 substituted analogues of 9-hydroxy-4-phenylpyrrolo[3,4-c]carbazole-1,3(2H,6H)-diones as inhibitors of Wee1 and Chk1 checkpoint kinases” (Eur J Med Chem, 2008).

What is called IC50 is the midpoint of a concentration-inhibition curve. High values mean a need for much substance, low ones inhibition by little substance.

For the experiment, the target named is T1, Serine/threonine-protein kinase Chk1 (Homo sapiens, UniProt O14757).
T1 sequence (O14757 whole entry): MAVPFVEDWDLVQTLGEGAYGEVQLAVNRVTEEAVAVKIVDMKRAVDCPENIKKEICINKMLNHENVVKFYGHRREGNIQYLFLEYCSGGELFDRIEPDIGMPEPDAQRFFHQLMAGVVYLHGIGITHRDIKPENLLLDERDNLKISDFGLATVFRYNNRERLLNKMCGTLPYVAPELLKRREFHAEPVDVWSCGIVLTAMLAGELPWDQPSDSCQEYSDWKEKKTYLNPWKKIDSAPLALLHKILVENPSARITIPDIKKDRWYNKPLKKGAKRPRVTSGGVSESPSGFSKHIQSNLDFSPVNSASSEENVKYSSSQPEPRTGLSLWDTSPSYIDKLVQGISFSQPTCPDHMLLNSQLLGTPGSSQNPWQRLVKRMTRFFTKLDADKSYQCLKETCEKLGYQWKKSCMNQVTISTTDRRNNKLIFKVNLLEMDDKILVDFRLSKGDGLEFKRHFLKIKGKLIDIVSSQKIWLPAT

SMILES strings stand for the structures.

As for `O=C1NC(=O)c2c1c(-c1ccccc1Cl)cc1c2c2cc(O)ccc2n1CC(O)CO` (centres undefined), the IC50 came to 77 nM.

`NC(=O)CCn1c2ccc(O)cc2c2c3c(c(-c4ccccc4)cc21)C(=O)NC3=O` showed an IC50 of 35 nM. With `O=C1NC(=O)c2c1c(-c1ccccc1Cl)cc1c2c2cc(O)ccc2n1CCS(=O)(=O)c1nnc[nH]1`, the IC50 was determined as 77 nM.

For the compound `O=C1NC(=O)c2c1c(-c1c(Cl)cccc1Cl)cc1c2c2cc(O)ccc2n1CCCn1ccnc1`, inhibition was half-maximal at 1300 nM (IC50). Then `O=C1NC(=O)c2c1c(-c1ccccc1)cc1c2c2cc(O)ccc2n1CCCO`, with 59 nM. Next, `COC(=O)CCn1c2ccc(O)cc2c2c3c(c(-c4ccccc4Cl)cc21)C(=O)NC3=O`: 200 nM; `O=C(O)CCn1c2ccc(O)cc2c2c3c(c(-c4ccccc4)cc21)C(=O)NC3=O`: 410 nM; `O=C1NC(=O)c2c1c(-c1ccccc1Cl)cc1c2c2cc(O)ccc2n1CCn1ccnc1`: 270 nM. In turn, `O=C1NC(=O)c2c1c(-c1c(Cl)cccc1Cl)cc1c2c2cc(O)ccc2n1CCCO` gave an IC50 of 410 nM. Then `CNCCCn1c2ccc(O)cc2c2c3c(c(-c4ccccc4)cc21)C(=O)NC3=O`, with 2 nM; and `O=C1NC(=O)c2c1c(-c1c(Cl)cccc1Cl)cc1c2c2cc(O)ccc2n1CCCNc1ccccc1`, with 730 nM; and `CNCCCn1c2ccc(O)cc2c2c3c(c(-c4c(Cl)cccc4Cl)cc21)C(=O)NC3=O`, with 5 nM.

On to `CN(C)CCCn1c2ccc(O)cc2c2c3c(c(-c4ccccc4)cc21)C(=O)NC3=O`, for which the IC50 was determined as 21 nM.

`O=C1NC(=O)c2c1c(-c1c(Cl)cccc1Cl)cc1c2c2cc(O)ccc2n1CCn1ccnc1` yielded an IC50 of 3400 nM. Next, `CN(C)CCn1c2ccc(O)cc2c2c3c(c(-c4ccccc4Cl)cc21)C(=O)NC3=O`: 110 nM; `O=C1NC(=O)c2c1c(-c1ccccc1)cc1c2c2cc(O)ccc2n1CCn1ccnc1`: 250 nM; `O=C1NC(=O)c2c1c(-c1ccccc1Cl)cc1c2c2cc(O)ccc2n1CCc1nnn[nH]1`: 1400 nM. Next, `O=C1NC(=O)c2c1c(-c1ccccc1Cl)cc1c2c2cc(O)ccc2n1CCSc1nnc[nH]1`: 420 nM; `O=C1NC(=O)c2c1c(-c1ccccc1)cc1c2c2cc(O)ccc2n1CCO`: 88 nM; `O=C1NC(=O)c2c1c(-c1ccccc1)cc1c2c2cc(O)ccc2n1CCCn1ccnc1`: 36 nM. Next, `CN1CCN(CCCn2c3ccc(O)cc3c3c4c(c(-c5ccccc5)cc32)C(=O)NC4=O)CC1`: 200 nM; `NC(=O)CCn1c2ccc(O)cc2c2c3c(c(-c4ccccc4Cl)cc21)C(=O)NC3=O`: 54 nM; `CN(C)CC(O)Cn1c2ccc(O)cc2c2c3c(c(-c4ccccc4Cl)cc21)C(=O)NC3=O` (centres undefined): 30 nM. The compound `CS(=O)(=O)NC(=O)CCn1c2ccc(O)cc2c2c3c(c(-c4ccccc4Cl)cc21)C(=O)NC3=O` had an IC50 of 2500 nM. Next, `O=C1NC(=O)c2c1c(-c1ccccc1Cl)cc1c2c2cc(O)ccc2n1CC[S+]([O-])c1nnc[nH]1` (centres undefined): 120 nM; `O=C(CCn1c2ccc(O)cc2c2c3c(c(-c4ccccc4Cl)cc21)C(=O)NC3=O)NS(=O)(=O)c1ccccc1`: 8000 nM. Compound `NC(=O)CCn1c2ccc(O)cc2c2c3c(c(-c4c(Cl)cccc4Cl)cc21)C(=O)NC3=O` gave an IC50 of 360 nM. Next, `O=C1NC(=O)c2c1c(-c1ccccc1)cc1c2c2cc(O)ccc2n1CCCNc1ccccc1`: 210 nM; `CNCC(O)Cn1c2ccc(O)cc2c2c3c(c(-c4ccccc4Cl)cc21)C(=O)NC3=O` (centres undefined): 3 nM; `CN(C)CCn1c2ccc(O)cc2c2c3c(c(-c4c(Cl)cccc4Cl)cc21)C(=O)NC3=O`: 850 nM. The compound `O=C1NC(=O)c2c1c(-c1ccccc1Cl)cc1c2c2cc(O)ccc2n1CCCc1nnn[nH]1` came in with an IC50 of 630 nM.

Consider `O=C1NC(=O)c2c1c(-c1ccccc1Cl)cc1c2c2cc(O)ccc2n1CCCn1ccnc1`, for which the IC50 worked out at 55 nM. The compound `N#CCCn1c2ccc(O)cc2c2c3c(c(-c4ccccc4Cl)cc21)C(=O)NC3=O` registered an IC50 of 200 nM. Next, `CN(C)CCNC(=O)CCn1c2ccc(O)cc2c2c3c(c(-c4ccccc4Cl)cc21)C(=O)NC3=O`: 53 nM; `O=C(O)CCn1c2ccc(O)cc2c2c3c(c(-c4c(Cl)cccc4Cl)cc21)C(=O)NC3=O`: > 10000 nM. Then `CN(C)CCCn1c2ccc(O)cc2c2c3c(c(-c4c(Cl)cccc4Cl)cc21)C(=O)NC3=O`, with 96 nM; and `O=C1NC(=O)c2c1c(-c1ccccc1Cl)cc1c2c2cc(O)ccc2n1CCCNc1ccccc1`, with 4700 nM. Take `CN(C)CCNC(=O)CCn1c2ccc(O)cc2c2c3c(c(-c4c(Cl)cccc4Cl)cc21)C(=O)NC3=O`: the IC50 was determined as 750 nM. Next, `CN(C)CCn1c2ccc(O)cc2c2c3c(c(-c4ccccc4)cc21)C(=O)NC3=O`: 54 nM.
